# Out of some 310,000 compounds screened, about 2,200 (0.71%) showed an effect of 50% or more. The effect is printed as a negative number. The list shows a part of the results.
# Biological target: human ether-à-go-go-related gene (hERG) potassium channel (human, UniProt Q12809)
# Experiment: primary screen, population patch clamp on CHO cells stably expressing hERG
# Sequence of human ether-à-go-go-related gene (hERG) potassium channel (Q12809 whole entry, looked up): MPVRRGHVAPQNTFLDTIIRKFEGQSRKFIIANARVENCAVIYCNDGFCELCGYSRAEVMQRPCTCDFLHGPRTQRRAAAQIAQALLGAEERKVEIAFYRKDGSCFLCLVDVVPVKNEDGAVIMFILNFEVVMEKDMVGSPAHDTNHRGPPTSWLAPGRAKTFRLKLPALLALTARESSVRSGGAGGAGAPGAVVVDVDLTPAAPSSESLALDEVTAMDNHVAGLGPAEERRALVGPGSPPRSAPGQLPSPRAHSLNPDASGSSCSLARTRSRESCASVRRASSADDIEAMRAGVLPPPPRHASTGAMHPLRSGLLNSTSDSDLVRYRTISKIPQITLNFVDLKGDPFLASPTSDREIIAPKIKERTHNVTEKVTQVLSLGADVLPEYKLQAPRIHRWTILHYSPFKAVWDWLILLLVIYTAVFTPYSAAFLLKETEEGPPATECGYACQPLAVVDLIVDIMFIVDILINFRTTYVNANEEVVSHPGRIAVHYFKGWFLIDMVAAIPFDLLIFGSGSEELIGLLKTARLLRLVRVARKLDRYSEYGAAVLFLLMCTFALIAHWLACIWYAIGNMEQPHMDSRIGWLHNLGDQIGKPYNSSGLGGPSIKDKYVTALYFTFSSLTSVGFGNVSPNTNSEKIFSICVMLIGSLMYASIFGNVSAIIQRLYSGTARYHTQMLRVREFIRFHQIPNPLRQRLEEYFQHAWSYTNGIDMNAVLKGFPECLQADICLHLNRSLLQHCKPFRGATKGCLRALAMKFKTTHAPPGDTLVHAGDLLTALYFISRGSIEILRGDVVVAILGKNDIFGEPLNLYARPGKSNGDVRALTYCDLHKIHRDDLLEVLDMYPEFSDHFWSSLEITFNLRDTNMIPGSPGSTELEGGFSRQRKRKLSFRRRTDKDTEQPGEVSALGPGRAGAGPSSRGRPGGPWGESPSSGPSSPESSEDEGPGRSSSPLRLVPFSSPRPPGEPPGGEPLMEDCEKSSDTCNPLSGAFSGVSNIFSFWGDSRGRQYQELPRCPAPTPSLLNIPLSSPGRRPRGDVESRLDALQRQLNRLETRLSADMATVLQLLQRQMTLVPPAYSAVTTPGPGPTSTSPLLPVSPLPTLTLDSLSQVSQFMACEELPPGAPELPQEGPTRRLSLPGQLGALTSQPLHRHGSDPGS
row,Compound,"hERG current change (%, negative = inhibition) at 1uM [%]"
1,CN1CCCC(OC(=O)CCCC(=O)OC2CCCN(C)C2)C1.Cl (centres unmarked),-11.6
2,CCOC(=O)Nc1ccc2c(COC(=O)c3ccccc3O)cc(=O)oc2c1,7.73
3,Cc1ccccc1/C=C/C(=O)NCC(=O)N1CCC(N(C)C2CCCCC2C)CC1 (centres unmarked),-36.1
4,Cc1cccn2c(=O)c3cc(C(=O)NCCN4CCOCC4)c(=N)n(Cc4cccnc4)c3nc12,9.95
5,CCc1ccc(NC(=O)c2ccc(NC3=NC4CS(=O)(=O)CC4S3)cc2)cc1 (centres unmarked),7.01
6,CCOC(=O)C1=C(C)NC(=O)NC1c1c(O)ccc2ccccc12 (centres unmarked),9.33
7,CS(=O)(=O)Nc1ccc(S(=O)(=O)NCCc2ccccc2)cc1,-16.8
8,CCCn1ncc(CN2CCC(Oc3ccc(C(=O)N4CCCC4)cc3)CC2)c1C,3.14
9,CCOC(=O)c1c(C)oc2c1c(C(c1cccnc1)N1CCCCC1)c(O)c1ccccc12 (centres unmarked),0.0286
10,Cc1ccc(NC(=O)c2cccs2)cc1NC(=O)c1cccc(F)c1,6.73
11,CCCCCC(=O)N1CCCC1,12.5
12,Cc1nn(C)c(C)c1S(=O)(=O)N1CCCC(C(=O)NCCc2ccc(Cl)cc2)C1 (centres unmarked),6.79
13,COCCN(C(=O)CCN1C(=O)C2CC=CCC2C1=O)c1c(N)n(CC(C)C)c(=O)[nH]c1=O (centres unmarked),11.6
14,Nc1nc(SCC(=O)C23CC4CC(CC(C4)C2)C3)n[nH]1,-1.55
15,NC1(C#Cc2ccc3oc(=O)c(-n4cc(-c5ccsc5)nn4)cc3c2)CCCCC1,2.7
16,CCO[C@H]1OC(C(=O)N2CCCCCCC2)=C[C@@H](c2ccc(C(F)(F)F)cc2)[C@@H]1CCCO,6.5
17,COc1cc(-c2nc(-c3ccccc3)c(-c3ccc(F)cc3)[nH]2)cc2c1OCO2,10
18,O=S1(=O)CCC(NC(=S)N2CCCCC2)C1 (centres unmarked),6.33
19,O=C(COC(=O)C1C2CC3OC(=O)C1C3C2)Nc1cccc(C(F)(F)F)c1 (centres unmarked),1.06

row,Compound,"hERG current change (%, negative = inhibition) at 1uM [%]"
1,O=C(COC(=O)c1ccco1)NCc1ccc(Cl)cc1,9.29
2,Nc1ccc(-c2nc3ccc(-c4nc5ccccc5o4)cc3[nH]2)cc1,13
3,N=c1c(S(=O)(=O)c2ccc(F)cc2)cc2c(=O)n3ccccc3nc2n1CC1CCCO1 (centres unmarked),-2.33
4,Cc1ccc(C(=O)NC(NC(=S)Nc2ccc(S(N)(=O)=O)cc2)C(Cl)(Cl)Cl)cc1 (centres unmarked),0.919
5,Cc1cccc(-n2nnnc2SCC(=O)c2cc(C)n(Cc3ccco3)c2C)c1,-5.03
6,COc1ccc(C)c2sc(N(CCN(C)C)C(=O)/C=C/c3cccs3)nc12.Cl,7.34
7,C=C(C)c1cccc(C(C)(C)NC(=O)N2CCN(CC)CC2)c1,5.16
8,Cc1ccnc2c1ccc1c(C)ccnc12.O,8.07
9,COC(=O)C1=C(C)Nc2nc3ccccc3n2C1c1ccccc1F (centres unmarked),8.31
10,O=C(CCn1c(=O)oc2ccccc21)n1c(=O)oc2ccccc21,15.9
11,C=CCn1cc(C(=O)OC)c(=O)c2cc(S(=O)(=O)N(CC)CC)ccc21,10.1
12,Cc1ccc(O)c(C(=O)CC(=O)c2ccccc2Cl)c1,16
13,O=C(COCc1cc(-c2ccc3c(c2)OCO3)on1)N1CCCCC1,7.6
14,Cc1ccc(N(CC(=O)NC(C)(C)C)C(=O)CNC(=O)c2cccs2)c(C)c1,10.7
15,CCOc1cccc(-c2nc3cc(C)ccc3o2)c1,18.5
16,CC(=O)Nc1cccc(NC(=O)c2c(-c3c(Cl)cccc3Cl)noc2C)c1,3.61
17,CC(NC(=O)c1ccccc1O)c1ccccc1 (centres unmarked),11.2
18,COc1ccc(/C=N/NC(=O)CNC(=O)c2ccc(S(=O)(=O)N3CCOCC3)cc2)cc1OC,5.4
19,CCOc1ccc(C2c3cc(OC)c(OC)cc3CC(=O)N2c2ccccc2)cc1 (centres unmarked),-9.55

row,Compound,"hERG current change (%, negative = inhibition) at 1uM [%]"
1,Cc1ccn2c(NC3CCCCC3)c(C)nc2c1,5.08
2,Nc1nonc1C(=O)NCCNS(=O)(=O)c1ccc(Br)cc1,-3.34
3,CCCCCN(C(=O)CCC(=O)OCc1ccccc1F)c1c(N)n(CCCC)c(=O)[nH]c1=O,13.6
4,O=C(COc1ccc([N+](=O)[O-])cc1)NNC(=O)c1cccs1,8.47
5,O=C(Nc1nc2ccc([N+](=O)[O-])cc2s1)c1ccco1,23.7
6,CN(c1ccc(C(=O)Nc2ccc(Cl)cn2)cc1)S(=O)(=O)c1ccccc1,-0.904
7,Cc1ccccc1/C=C1\OC(=O)c2ccccc21,4.12
8,CCn1cnc2cc(NCc3cccs3)ccc21,9.39
9,N/C(=N\OC(=O)Cc1cccs1)c1ccc(Cl)cc1,11.1
10,CCCc1nnc(NC(=O)CCC(=O)N2CCN(Cc3ccc(OC)c(F)c3)CC2)s1,7.31
11,O=C(c1ccccc1)N1CCN(c2ncccn2)CC1,16.1
12,O=c1c(-c2cc3ccccc3o2)[n+]([O-])c2ccccc2n1OCc1ccccn1,-3.66
13,COCCN(C(=O)COC(=O)c1cccnc1Cl)c1c(N)n(Cc2ccccc2)c(=O)[nH]c1=O,16.8
14,O=C(Nc1ccccc1F)c1cnccn1,18.6
15,Cc1ccccc1/C=C/c1nc2ccccc2c(=O)n1Cc1ccccc1,2.74
16,CCCC(=O)Nc1ccc2c(c1)C(=O)NC2=O,5.06
17,O=C(COC(=O)c1ccc[nH]c1=O)NCCc1ccc(Cl)cc1Cl,9.68
18,Cc1cccc(C(=O)NNC(=O)CCC(=O)Nc2cccc(Cl)c2C)c1,6.38

# Reference: PMC4336329 (PLoS ONE, 2015)
